{"source": "the supplement of paper PMC11417369", "note": "± gives the standard deviation of the averaged measurements. The list shows a part of the results.", "data": [{"system": "PfAP2-I AP2 domain 3 (GST-tagged)", "test": "gcPBM binding intensity (ln(normalized median fluorescence intensity)); higher = stronger DNA binding", "summary_of_the_method": "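Each value is the highest Masliner-normalised natural-log median intensity across replicate spots of either orientation of a probe. The probes were primer-extended double-stranded 36-bp intergenic genomic sequences on an Agilent 4 × 180k array, alongside negative controls, exposed for 1 h to GST-tagged P. falciparum DNA-binding domains expressed in E. coli. Bound protein was picked up with Alexa488 anti-GST antibody and scanned at 488 nm.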", "values": [{"sequence": "TTTTTTTTTTTTATTTGTACACATTTTCATATTTTT [XGTACX_site4406]", "gcPBM binding intensity (ln)": "8.08 ± 0.67"}, {"sequence": "TATATATATATGTGCACACATAAAGATATTATTTTT [CACACA_site3733]", "gcPBM binding intensity (ln)": "10.2 ± 0.042"}, {"sequence": "AATATATCATAATGATGTACAAGTAAAACCGTTACA [XGTACX_site4280]", "gcPBM binding intensity (ln)": "7.66 ± 0.61"}, {"sequence": "AATATATATATATATACATGCATATATTCCTTCCTT [TGCATGCA_site890]", "gcPBM binding intensity (ln)": "7.81 ± 0.72"}, {"sequence": "ATTCTTTTAAACAGTACACACACACCGATATATATA [CACACA_site8213]", "gcPBM binding intensity (ln)": "8.44 ± 0.71"}, {"sequence": "TTTGTGCCTATAAATTAACACACAGAAATATATAGA [CACACA_site8175]", "gcPBM binding intensity (ln)": "9.025 ± 0.064"}, {"sequence": "AAAAACTTATATGATACACACGATAAACAAAATAAA [CACACA_site1039]", "gcPBM binding intensity (ln)": "7.91 ± 0.42"}, {"sequence": "TAACACATAAATAAATATATACATATATATAAAATA [CACACA_negctrl_site375]", "gcPBM binding intensity (ln)": "7.3 ± 0.27"}, {"sequence": "ATAAAATAAAATTGGTGTACTTTTGATAAAATAAAA [XGTACX_site4264]", "gcPBM binding intensity (ln)": "7.84 ± 0.28"}, {"sequence": "GATCTATATATCATTACACACTTGAATTACTTAAAA [CACACA_site21]", "gcPBM binding intensity (ln)": "7.64 ± 0.67"}, {"sequence": "CAAAAATACATTATAATAATATGCACAATAATAAAT [XGTACX_negctrl_site263]", "gcPBM binding intensity (ln)": "9.96 ± 1.1"}, {"sequence": "ACAAAATTTACAAAATGTACAAAGTATGTGTTTTAT [XGTACX_site6462]", "gcPBM binding intensity (ln)": "7.58 ± 0.49"}, {"sequence": "ATATTTTTTTTTTTCACACACATTTATATTGTATTA [CACACA_site5695]", "gcPBM binding intensity (ln)": "8.01 ± 0.79"}, {"sequence": "AGAAAAAAGAGGGATACACACAAACATATATTTATA [CACACA_site7122]", "gcPBM binding intensity (ln)": "7.66 ± 0.53"}, {"sequence": "CACCCTTTGTTTTAGAGTACATATGTATATACGTAA [XGTACX_site7964]", "gcPBM binding intensity (ln)": "8.03 ± 0.51"}, {"sequence": "GATTAAAATCAAAGGTGTACGCACAAATAAGTCCCA [XGTACX_site4360]", "gcPBM binding intensity (ln)": "8.34 ± 0.71"}, {"sequence": "TATATATATTTATGTACACACATATATACCTTTCAT [CACACA_site5479]", "gcPBM binding intensity (ln)": "8.28 ± 0.42"}, {"sequence": "TATTAATTATAAGATGCATGTGCAAAAATATGTTCC [TGCATGCA_site51]", "gcPBM binding intensity (ln)": "9.29 ± 0.4"}, {"sequence": "ATAATATTTTATTATACATGCAAATTATTATATATA [TGCATGCA_site40]", "gcPBM binding intensity (ln)": "7.58 ± 0.56"}, {"sequence": "TTTCTTTGTATTTATAGTACATATTTTAATAACTGC [XGTACX_site6673]", "gcPBM binding intensity (ln)": "7.76 ± 0.31"}, {"sequence": "TAAAAATTAAAAAGGGTGCAAAAAAAAAAAAAAAAA [GTGCAC_site9733]", "gcPBM binding intensity (ln)": "11 ± 0.61"}, {"sequence": "AAAAGACATTTTTTTTTATAAATACACACGTACGTG [TGCATGCA_negctrl_site281]", "gcPBM binding intensity (ln)": "7.79 ± 0.67"}, {"sequence": "AGGAGGAACAAACAAAACAATAAAAATTATAATAAA [GTGCAC_negctrl_site206]", "gcPBM binding intensity (ln)": "7.92 ± 0.49"}, {"sequence": "TTCCAAGAAATAATAGTGCATTATTCATTTTAATAA", "gcPBM binding intensity (ln)": "11.5 ± 0.42"}, {"sequence": "TTCAAAGACACAATCACACACATACATAAATATACA [CACACA_site687]", "gcPBM binding intensity (ln)": "7.81 ± 0.35"}, {"sequence": "AATATACATAACAAGGTGCAAAAAATATTGTTCATA [GTGCAC_site9499]", "gcPBM binding intensity (ln)": "10.4 ± 0.26"}, {"sequence": "TTATTATTATGATTATTATGATGATTATACAACTGT [TGCATGCA_negctrl_site241]", "gcPBM binding intensity (ln)": "7.53 ± 0.61"}, {"sequence": "ATTATATTAATTTATAGTACAATATTTATATATATG [XGTACX_site4668]", "gcPBM binding intensity (ln)": "7.54 ± 0.28"}, {"sequence": "TATATATTACTTTTTTGTACGAATTTTACAACTACG [XGTACX_site3473]", "gcPBM binding intensity (ln)": "7.87 ± 0.39"}, {"sequence": "TATTAAAATATTCTCACACACCAAAATATGTATGTA [CACACA_site6565]", "gcPBM binding intensity (ln)": "7.5 ± 0.38"}, {"sequence": "AAAAAAAAAAAAAAAAAAAGAAAAGAAAATAGGGTT [GTGCAC_negctrl_site421]", "gcPBM binding intensity (ln)": "8.96 ± 0.22"}, {"sequence": "GCCATTAATTTATACACACACATTATAACTTTTTAT [CACACA_site6492]", "gcPBM binding intensity (ln)": "8.29 ± 0.49"}, {"sequence": "TTAAATAAAAAAATAACACACATATAAATCTATATG [CACACA_site7482]", "gcPBM binding intensity (ln)": "7.43 ± 0.48"}, {"sequence": "TATCAGCAATGGAAAACATGCAAAAAATTAATATAT [TGCATGCA_site623]", "gcPBM binding intensity (ln)": "7.95 ± 0.74"}, {"sequence": "TCTTCAAAGACACAATCACACACATACATAAATATA [CACACA_site8128]", "gcPBM binding intensity (ln)": "7.79 ± 0.46"}, {"sequence": "ATCAAAAATGTTATATATATATATATATATATATAT [TGCATGCA_negctrl_site71]", "gcPBM binding intensity (ln)": "9.41 ± 0.77"}, {"sequence": "AATACGTTTCAAAAATGTACACATATATCATAAATA [XGTACX_site8962]", "gcPBM binding intensity (ln)": "7.76 ± 0.56"}, {"sequence": "TGATTCTTTTCAAAGTGTACAGTAATTTTTATGTAA [XGTACX_site8452]", "gcPBM binding intensity (ln)": "7.59 ± 0.4"}, {"sequence": "TATATAATTCAAAAATGTACATGAAATATAAATATT [XGTACX_site7984]", "gcPBM binding intensity (ln)": "7.81 ± 0.67"}, {"sequence": "AAATATATTGCATATATACACACGTATATATATTAA [CACACA_site2759]", "gcPBM binding intensity (ln)": "7.93 ± 0.47"}, {"sequence": "ATATCAAGCTATGAGAAAAAAAAAAAGAAAAAAAAA [CACACA_negctrl_site1370]", "gcPBM binding intensity (ln)": "7.61 ± 0.83"}, {"sequence": "AAGTTTTCTTAAAGATGTACTTTTTAAAAATAAAAT [XGTACX_site3063]", "gcPBM binding intensity (ln)": "7.7 ± 0.29"}, {"sequence": "ATATTATAAATTATAGGTACACACAAAAAAAAAAAG [XGTACX_site2637]", "gcPBM binding intensity (ln)": "8.3 ± 0.25"}, {"sequence": "TATATTTATTTTTAATGTACATATTTAAGAAAACTA [XGTACX_site4920]", "gcPBM binding intensity (ln)": "7.83 ± 0.16"}, {"sequence": "GACTCATTAAGGATTATTCCTAATGATCAAAAGAAC [CACACA_negctrl_site515]", "gcPBM binding intensity (ln)": "7.75 ± 0.6"}, {"sequence": "AACTTGTATTTATACACACACACACTAGCTTTTTTT [CACACA_site5132]", "gcPBM binding intensity (ln)": "7.98 ± 0.64"}, {"sequence": "AGAATTAAAAACAGTTGTACAAAAAGTTGTATAAAT [XGTACX_site411]", "gcPBM binding intensity (ln)": "7.96 ± 0.54"}, {"sequence": "AGTAATAAATTTTATACATGCATAAAAAAAAAAAAA [TGCATGCA_site661]", "gcPBM binding intensity (ln)": "8.29 ± 0.73"}, {"sequence": "TATAGCTTTCATTATACACACATCAAAAATTTAAAT [CACACA_site227]", "gcPBM binding intensity (ln)": "7.93 ± 0.46"}, {"sequence": "TTAAAAATCATTTAAGAACACACAAATATTTCCATT [CACACA_site8418]", "gcPBM binding intensity (ln)": "7.57 ± 0.44"}, {"sequence": "TTTTTTTTTTCTTTTTTTTATTATATTAACGGAATT [GTGCAC_negctrl_site104]", "gcPBM binding intensity (ln)": "7.97 ± 0.43"}, {"sequence": "AATAAACAAATAAATAAACACACAATATATGTATAT [CACACA_site9268]", "gcPBM binding intensity (ln)": "7.57 ± 0.61"}, {"sequence": "AAAAAGAAATACAAATAATATATATATATATATATT [TGCATGCA_negctrl_site458]", "gcPBM binding intensity (ln)": "7.71 ± 0.38"}, {"sequence": "CATAAAAATTGAAGCACACACACAAAAGAAATACAA [CACACA_site1112]", "gcPBM binding intensity (ln)": "8.27 ± 0.54"}, {"sequence": "ATCATTTCTATATAAGCACACACGTGGAATTTTTTT [CACACA_site2786]", "gcPBM binding intensity (ln)": "9.27 ± 0.47"}, {"sequence": "TTTCTTTAACAAGTTAAACACACATACATATATACA [CACACA_site8810]", "gcPBM binding intensity (ln)": "7.85 ± 0.49"}]}]}
